Test results published in article PMC12259270, “Sensory neuron–expressed FGF13 controls nociceptive signaling in diabetic neuropathy models” (The Journal of Clinical Investigation, 2025).
Entries with a single value are a further part of the results. Residues, ends and D or L forms follow the SMILES beside them. *: point of attachment. NHPh = c1ccc(N*)cc1

System: Na+ currents in hIPSC-derived sensory neurons (RealDRG)
Experiment: Whole-cell voltage clamp, hIPSC-derived sensory neurons (RealDRG) with Nav1.7 blocker ProTx-II
Assay type: cell-based, human
Experimental: Next, we conducted whole-cell patch-clamp electrophysiological recordings in hIPSC-derived sensory neurons under three conditions: unstimulated and treated with 0.07% ethanol (capsaicin vehicle), treated with capsaicin (100 nM, 10 minutes), and treated with capsaicin plus SB-366791 (10 μM), a selective TRPV1 inhibitor. Each group was exposed to either vehicle (0.01% DMSO) or PW164 (50 μM), with all recordings performed in the presence of the Nav1.8 blocker A-803467 (300 nM) ([41]). The experimental groups are color coded in Figure 2A. Capsaicin caused potentiation of INa (Figure 2A) and induced hyperpolarizing shifts in the V1/2 of activation (Figure 2B) and SSI (Figure 2C). […] Next, we investigated whether silencing FGF13 could replicate PW164’s effects and prevent additional activity of the compound. hIPSC-derived sensory neurons were transfected with a previously validated pAAV-shFGF13-GFP construct ([42]) (Supplemental Figure 8). […] Neither PW164 nor FGF13 silencing affected Na+ currents in neurons transfected with pAAV-shCTRL-GFP or pAAV-shFGF13-GFP, whether unstimulated or treated with capsaicin in the presence of ProTx II (Supplemental Figure 9 and Supplemental Table 6). Thus, PW164 selectively modulated FGF13-dependent Na^+ current sensitization via TRPV1, with FGF13 silencing mimicking and validating PW164’s effect. […]
Whole-cell patch clamp electrophysiology
HEK293-Nav1.7 cells, HEK293 stably expressing human Nav1.6 (HEK-Nav1.6), HEK293 stably expressing human Nav1.5 (HEK-Nav1.5), human hIPSC-derived sensory neurons (RealDRGTM from Anatomic Incorporated 1020F1-1M) and donor-derived DRG neurons were plated at low density on glass coverslips and processed for whole-cell patch clamp electrophysiology in voltage-clamp and/or current clamp mode. Whole-cell patch electrophysiological experiments were conducted following previously published studies (26). Current densities were obtained by dividing INa amplitude by membrane capacitance. Current –voltage relationships were generated by plotting current density as a function of the […]. Conductance (G Na) was calculated by the […]
where INa is the current amplitude at voltage Vm, and Erev is the Na+ reversal potential.
Activation curves were derived by plotting normalized GNa as a function of test potential and fitted using […]
Where GNa,Max is the maximum conductance, Va is the membrane potential of half-maximal activation, Em is the membrane voltage and k is the slope factor. For steady -state inactivation, normalized current amplitude (INa/INa,Max) at the test potential was plotted as a function of prepulse potential (Vm) and fitted using the […]
Where Vh is the potential of half-maximal inactivation, E m is the membrane voltage, and k is the slope factor.
Transient INa inactivation decay was estimated with the standard exponential equation. Inactivation time constant (tau, τ) was fitted with the following equation: […]
where I(t) is the amplitude of the current at time t and Iss is the steady-state current during a single voltage-step.
The goodness of fitting was determined by correlation coefficient (R), and the cutoff of R was set at 0.85. To observe effects on long-term inactivation (LTI), a four-step protocol was employed during which cells were subjected to four 0 mV, 20 ms depolarization pulses separated by −90 mV, 40 ms recovery intervals. To control for various cell sizes, the current densities were calculated by dividing INa peak current amplitude/membrane capacitance (Cm). To represent the fraction of channels entering into LTI, the peak INa observed during depolarization cycles 2-4 was normalized to the peak INa observed during depolarization cycle 1 (INa/INa,Cycle 1) and plotted as a function of the depolarization cycle.
The cumulative (frequency-dependent) use-dependency was determined by applying 20 pulses with a depolarization to −10 mV (50 ms duration) and 50 ms recovery intervals with a train of 20 pulses at 10 Hz from a holding potential at -70 mV. […]

CC(=O)N[C@@H](Cc1ccccc1)C(=O)N[C@@H](CC(C)C)C(=O)N1CCC[C@H]1C(=O)N[C@@H](CCCCN)C(=O)Nc1ccccc1 [ZL192] (Ac-FLPK-NHPh)
Long-term inactivation, 2nd pulse (% of maximal Na+ current) (Control cells, 3rd pulse): 99.176
Long-term inactivation, 2nd pulse (% of maximal Na+ current) (Control cells, 4th pulse): 98.9578
Long-term inactivation, 2nd pulse (% of maximal Na+ current) (Naive cells, 3rd pulse): 100.382
Long-term inactivation, 2nd pulse (% of maximal Na+ current) (Naive cells, 4th pulse): 100.457
Long-term inactivation, 2nd pulse (% of maximal Na+ current) (ShFGF13 cells, 3rd pulse): 97.2554
Long-term inactivation, 2nd pulse (% of maximal Na+ current) (ShFGF13 cells, 4th pulse): 99.2296
